Measured values reported in PubChem BioAssay (NCATS).
The inconclusive results got no clear call from the source; some entries with a clear call stand among them for comparison. Calls of active or inactive are those of the source. Calls follow the shape of the dose curve; as a rule, active = well fitted curve in either direction with a large enough effect (not every such curve was filed as active); inconclusive = small, poorly fitted or top-dose-only effect, or another doubt; inactive = flat fitted curve, though single readings scatter.

Assay: AP1 Signaling Pathway (AID 357); also: top concentration of the series differs between compounds
Conditions: ME-180 (cervical carcinoma) AP-1-bla reporter, EGF-induced, beta-lactamase ratio, 5 h; at 17.2 µM (top of the series) unless noted
In short: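 Modulation of EGF-driven AP-1 transcription was assessed with a beta-lactamase reporter in ME-180 cells. Compound and EC50 EGF were co-incubated 5 hours at 37 °C before 2.5-hour CCF4 loading at room temperature and dual-emission reading.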
% is scaled to controls: 0 for no effect and ±100 for the full control effect.

**Q.** For CCc1[nH]c(=O)c(C#N)c2c1CCCC2, which activity change, negative = inhibition is on record?
**A.** Its activity change, negative = inhibition is inactive: 3.3%.

**Q.** Which activity change, negative = inhibition does the source give for Ic1ccc2c(c1)N(c1ccccc1)c1cc(Nc3ccc4nc5ccc(I)cc5[n+](-c5ccccc5)c4c3)ccc1N2 here?
**A.** The activity change, negative = inhibition was inactive: -4% [at 7.69 µM].

**Q.** For CC(C)NC(=O)N1CCC2(CC1)CCN(C(=O)c1ccncc1)CC2, which activity change, negative = inhibition is on record?
**A.** The activity change, negative = inhibition was inactive: -7.19% [at 7.69 µM].

**Q.** Which activity change, negative = inhibition does the source give for COCCOCCOCCC(=O)NC1CC2CCC1(C)C2(C)C (stereo not given) here?
**A.** Its activity change, negative = inhibition is inactive: 13.7%.

**Q.** For Cc1cc(C)n(S(=O)(=O)Cc2ccccc2)n1, which activity change, negative = inhibition is on record?
**A.** Its activity change, negative = inhibition is inconclusive: 9.79% [activator].

**Q.** With CC(C)[C@H](Sc1nc(N)nc2nc[nH]c12)C(=O)O as the compound, how does the activity change, negative = inhibition read?
**A.** Its activity change, negative = inhibition is inconclusive: 46.1% [activator] [at 7.69 µM].

**Q.** With Cc1cc(=O)[nH]c(SCC(=O)c2ccccc2)c1C#N as the compound, how does the activity change, negative = inhibition read?
**A.** The activity change, negative = inhibition was inconclusive: -42.8% [inhibitor].

**Q.** Which activity change, negative = inhibition does the source give for CCC1CC2(C)NC(=O)c3c(sc4c3CC(C)(C)OC4)N2C1=O (stereo not given) here?
**A.** The activity change, negative = inhibition was inactive: -7.1%.

**Q.** For CC(C)C(C(=O)Nc1ncn[nH]1)N1C(=O)c2ccccc2C1=O (stereo not given), which activity change, negative = inhibition is on record?
**A.** The activity change, negative = inhibition was inactive: 21.4%.

**Q.** For CCOc1ccc(C2/C(=C(/O)c3ccc(F)cc3)C(=O)C(=O)N2CCCN(C)C)cc1 (stereo not given), which activity change, negative = inhibition is on record?
**A.** The activity change, negative = inhibition was inactive: 10.1%.

**Q.** Which activity change, negative = inhibition does the source give for CC(C)(C)C1=Nn2c(nnc2-c2ccco2)SC1 here?
**A.** Its activity change, negative = inhibition is inactive: 2.22%.

**Q.** For O=C(O)/C(Cc1ccnc2ccccc12)=N\O, which activity change, negative = inhibition is on record?
**A.** Its activity change, negative = inhibition is inactive: -9.39% [at 7.69 µM].

**Q.** For Cc1ccc(C2/C(=C(/O)c3cnn(-c4ccccc4)c3C)C(=O)C(=O)N2CCN2CCOCC2)o1 (stereo not given), which activity change, negative = inhibition is on record?
**A.** Its activity change, negative = inhibition is inactive: -8.72%.

**Q.** With COc1cccc(-c2nn3c(-c4ccccn4)nnc3s2)c1 as the compound, how does the activity change, negative = inhibition read?
**A.** The activity change, negative = inhibition was inactive: -5.18%.

**Q.** For CC(C)N1CCc2c(sc(N)c2C#N)C1, which activity change, negative = inhibition is on record?
**A.** The activity change, negative = inhibition was inactive: 5.12%.

**Q.** Which activity change, negative = inhibition does the source give for Cc1ccc(-c2nnc(-c3ccccc3)o2)cc1Br here?
**A.** The activity change, negative = inhibition was inconclusive: 41.4% [activator].

**Q.** For OC1(C(O)(c2ccc(-c3ccccc3)cc2)c2ccc(-c3ccccc3)cc2)CCCCC1, which activity change, negative = inhibition is on record?
**A.** The activity change, negative = inhibition was inactive: 7.3% [at 7.69 µM].

**Q.** With COc1ccc(NC(=O)N2CC3(CCN(C(=O)c4csnn4)CC3)C2)cc1 as the compound, how does the activity change, negative = inhibition read?
**A.** Its activity change, negative = inhibition is inactive: 20.6% [at 7.69 µM].

**Q.** Which activity change, negative = inhibition does the source give for O=C(O)CN(c1ccccc1)C1SC(=O)NC1=O (stereo not given) here?
**A.** The activity change, negative = inhibition was inactive: 3.92%.

**Q.** With Cc1cc(OCCN2CCCCC2)nc2ccccc12 as the compound, how does the activity change, negative = inhibition read?
**A.** Its activity change, negative = inhibition is inconclusive: 48.1% [activator].

**Q.** With CC(C)c1nc2n[nH]c(N)c2c2c1CCC2 as the compound, how does the activity change, negative = inhibition read?
**A.** Its activity change, negative = inhibition is inactive: 3.28%.

**Q.** With CCCOc1ccc(/C(O)=C2/C(=O)C(=O)N(CCCn3ccnc3)C2c2cccs2)cc1 (stereo not given) as the compound, how does the activity change, negative = inhibition read?
**A.** The activity change, negative = inhibition was inactive: -14.1%.

**Q.** Which activity change, negative = inhibition does the source give for C=CCc1c(C)nc(SCCC)[nH]c1=O here?
**A.** Its activity change, negative = inhibition is inactive: 2.81%.

**Q.** With CCSCCCC(=O)O as the compound, how does the activity change, negative = inhibition read?
**A.** Its activity change, negative = inhibition is inactive: -6.6% [at 7.69 µM].

**Q.** With CC(=NC1CCCC1)c1c(C)[nH]n(-c2nc3ccccc3s2)c1=O as the compound, how does the activity change, negative = inhibition read?
**A.** Its activity change, negative = inhibition is inconclusive: 65.3% [activator].

**Q.** For NC(=O)NC(=O)[C@H]1CCCC[C@@H]1C(=O)O, which activity change, negative = inhibition is on record?
**A.** The activity change, negative = inhibition was inactive: 7.05% [at 7.69 µM].

**Q.** Which activity change, negative = inhibition does the source give for O=C(O)c1c(-c2nccc3ccccc23)[nH]c(-c2ccccc2)c1S(=O)(=O)O here?
**A.** Its activity change, negative = inhibition is inconclusive: -37% [inhibitor] [at 7.69 µM].

**Q.** Which activity change, negative = inhibition does the source give for CC1(C)CC(=O)C(C=NCC(O)c2ccccc2)=C(O)C1 (stereo not given) here?
**A.** The activity change, negative = inhibition was inconclusive: 1.57% [activator].

**Q.** Which activity change, negative = inhibition does the source give for C[C@H](NCCN(C)C)[C@@H]1CCC2C3CCc4cc(O)ccc4[C@H]3CCC21C (stereo not given in full) here?
**A.** The activity change, negative = inhibition was inactive: 3.21% [at 7.69 µM].

**Q.** For N#CC1(P(=O)(c2ccccc2)c2ccccc2)CC1, which activity change, negative = inhibition is on record?
**A.** The activity change, negative = inhibition was inactive: 0.213%.

**Q.** Which activity change, negative = inhibition does the source give for CC(=O)Nc1cc2c(cc1Br)OCCO2 here?
**A.** Its activity change, negative = inhibition is inactive: 0.764%.

**Q.** Which activity change, negative = inhibition does the source give for O=c1[nH]c(CN2CCCCC2)nc2c1C1(CCCCC1)Cc1ccccc1-2 here?
**A.** Its activity change, negative = inhibition is inactive: 24.9%.

**Q.** With O=S(=O)(c1ccc(Br)cc1)N1CCN(S(=O)(=O)c2ccc(Br)cc2)CC1 as the compound, how does the activity change, negative = inhibition read?
**A.** The activity change, negative = inhibition was inactive: 14.8% [at 7.69 µM].

**Q.** For C=C(C)C1Cc2c(C)nn(-c3nc(C)cc(C)n3)c2C1 (stereo not given), which activity change, negative = inhibition is on record?
**A.** The activity change, negative = inhibition was inactive: -4.28%.

**Q.** With CCCCNC(=O)c1cc2n(n1)C(C(F)(F)F)CC(c1ccccc1)N2 (stereo not given) as the compound, how does the activity change, negative = inhibition read?
**A.** Its activity change, negative = inhibition is inactive: -14.9%.

**Q.** For Cc1nnc(S(=O)(=O)c2ccc(N=Nc3c(N)nc(N)nc3N)cc2)s1, which activity change, negative = inhibition is on record?
**A.** Its activity change, negative = inhibition is inconclusive: 38.4% [activator] [at 7.69 µM].

**Q.** Which activity change, negative = inhibition does the source give for COC(=O)c1ccc(C2NC(C(=O)O)CS2)cc1 (stereo not given) here?
**A.** The activity change, negative = inhibition was inactive: 5.95%.

**Q.** Which activity change, negative = inhibition does the source give for CC(C(=O)N1CCCCC1)N1C(=O)c2ccccc2C1=O (stereo not given) here?
**A.** Its activity change, negative = inhibition is inactive: 0.952%.

**Q.** Which activity change, negative = inhibition does the source give for O=C(N(c1ccccc1)c1ccccc1)n1ccnc1 here?
**A.** The activity change, negative = inhibition was inactive: 7.1%.

**Q.** Which activity change, negative = inhibition does the source give for COc1ccc(C2/C(=C(/O)c3ccc(OC(C)C)cc3)C(=O)C(=O)N2CCCN2CCOCC2)cc1 (stereo not given) here?
**A.** The activity change, negative = inhibition was inconclusive: -33.1% [inhibitor].
